# Test results from the supplement of paper PMC11417369.
# The list shows a part of the results.
# System: PfAP2-HC AP2 domain (GST-tagged)
# Assay: gcPBM binding intensity (ln(normalized median fluorescence intensity)); higher = stronger DNA binding
# In short: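 The highest Masliner-normalised natural-log median intensity across replicate spots of either probe orientation is reported as binding intensity. GST-tagged P. falciparum DNA-binding domains expressed in E. coli were applied for 1 h to an Agilent 4 × 180k array of primer-extended double-stranded 36-bp intergenic genomic probes plus negative controls, and bound protein was detected with Alexa488 anti-GST antibody and scanned at 488 nm.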
row,Sequence,gcPBM binding intensity (ln)
1,ATTATTGATTTATAAACACACACTCGAAGATGTTTA [CACACA_site8294],9.7
2,TTGAAATACTTTATTTGTACATATAGCAAAGTGTAT [XGTACX_site8782],9.59
3,ATTTTTTCTAGACATGCATGTGAAATTTACTTTTTT [TGCATGCA_site305],9.72
4,CTTTCTCTCAAAATGACATGCAATTTGTTTCTTTTT [TGCATGCA_site169],9.88
5,AAAAAAATATATAATAGTACATATATAGGAATATAT [XGTACX_site4591],9.76
6,TAATATCTTGAGTCATCACACATTGATTAATGAATC [CACACA_site5735],9.44
7,TGAATACAGATATTCACACAAATAGTTTTGATATAT [CACACA_site5527],9.59
8,AGTGGAAATTTTATTTGTACATAAATATTTACATAC [XGTACX_site633],9.5
9,CTTTTTTTTTTTTTTGCACACACATATATAAATATA [CACACA_site3950],10.1
10,ATTTTTTTTTAATGCAATATATTTTGAAAATTTTAT [CACACA_negctrl_site753],9.54
11,TTTTTTTTTTTTTTTACACACTTTATTCAAACAACT [CACACA_site4104],9.47
12,ATTGATACATCCAATACACACTACATATTATGATGT [CACACA_site6965],9.89
13,TTGGCATACAGACACACACACACACCCCCACATATA [CACACA_site590],10.9
14,AATTTATTAAAAAAATGTACTTATTTTTTTGTATAA [XGTACX_site5844],9.39
15,TTTTTTTTTTTTTTTTTTTTTTTTTCATATTAATAT [GTGCAC_negctrl_site351],9.04
16,AATATGGAATGAAATAACAATCGGGAGTATATTACC [CACACA_negctrl_site93],9.84
17,TATATATATGTTCTTACACACACGAATATATATATG [CACACA_site3304],9.92
18,ACATATTGTAGATATTGTACATATTGTGTATATATT [XGTACX_site7620],9.8
19,AATAGAATAATCCTTACACACACACCCACACGAATA [CACACA_site8053],10.4
20,AACCAATATGCGTATACACACATAAATATAAATATA [CACACA_site3780],9.95
21,TGTATAAAAAGAAAAAATCGTATGTGTTATCAAAAA [GTGCAC_negctrl_site490],9.58
22,AACCAGTTGATGTGTACACATATAGTAATAATTTTA [CACACA_site5564],9.89

row,Sequence,gcPBM binding intensity (ln)
1,GTATTAATTTTAAGGTGTACGCAAAAAATTTAATTT [XGTACX_site718],9.54
2,TTTTTTTTTTTTTGAACACACATTATTAATTTTTAT [CACACA_site308],9.63
3,ATATATTTTTTTTATACATGCAATGCATTTACGTTG [TGCATGCA_site565],9.99
4,TTTTTTATATATTAGGAATTTATAAAATTAGAAGGT [GTGCAC_negctrl_site617],9.55
5,TTATTATATACAAAATGTACACAGAATAATTTGAAT [XGTACX_site2314],9.62
6,ATATATATATATATATGTACATAATATATTATATAT [XGTACX_site924],9.68
7,TTTTTTTTTTTTTTGGTGCAGTTCACATATTATATA [GTGCAC_site9996],9.48
8,TTTTGAATATATTAAATAAATTAAAAATCTACAAAC [GTGCAC_negctrl_site622],9.36
9,AGATCATAATATTATACACACATTATATATCTGTAA [CACACA_site4925],9.81
10,TAATAAATTCAAAACATAAAAAGGAAAAAAAAAAAA [CACACA_negctrl_site1330],9.44
11,AAAATATTTAATAGAAGTACACATGTATATATACAT [XGTACX_site8942],9.77
12,TGTGTAAGCACATACAAACACACAACCTTATTTTTA [CACACA_site2187],9.88
13,TATATTAACAAAATGGTGCAATAATTTCTATATTGT [GTGCAC_site9430],9.58
14,TTATTATATTAAAAGAGGACACATTTATTTTTTTTT [XGTACX_site1241],9.41
15,AAGATTAAACATTGCACACAGAAATATATTTTCTAT [CACACA_site2374],9.81
16,TTTCAATGTGACACGTGTCCGTAAAATTACATAATT [XGTACX_site7073],9.7
17,ATTAATAAAAGATAAAGTACAAATCGGAAAATGAAT [XGTACX_site7846],9.94
18,ACAATGATAGTGTAAAGTACATATATATAAAAAAAT [XGTACX_site5928],10.2
19,TGAACTCATAGGAAAACACACATATGTGCAATATAT [CACACA_site6231],9.78
20,TGTTATTATTAAGACACACACACAAAAAAAAAAAAA [CACACA_site1481],10.5
21,TTTATAATATGTTATACATGCAGGTACCTTTTTGTA [TGCATGCA_site746],9.71
22,GAGAAATTTATACATACACACATATAAATATTATAG [CACACA_site7819],9.79

row,Sequence,gcPBM binding intensity (ln)
1,CTTTGCATTACGAACATACACACAGAATAACTGAAA [CACACA_site3024],9.88
2,TTTTTGTTAATAAGTATGCACTATCTCATTTTTGTA,9.67
3,ATATATTTTGGGGACTTTTTAAAAAAGAAGTATTAA [TGCATGCA_negctrl_site337],9.42
4,TTTCTATTACGAACGTGTACATACATTATTCTTAAA [XGTACX_site5816],9.3
5,TAGAAAAAAATAGATGCATGCAATGAATGAATAATA [TGCATGCA_site14],10.3
6,TAGTAGTATTCATCCAGTACATATAAATGTATAATA [XGTACX_site7552],9.64
7,CTATACTATGAAAAGTGTACGAATAGCTAGCTATTT [XGTACX_site5927],9.67
8,GAGCATTACACATATACACACATATAAATAAACATA [CACACA_site7315],10.2
9,TTCTTTTTTTTTTTTTTTTTTTTATAGTACAAAAAA [TGCATGCA_negctrl_site450],9.4
10,ATATCAAATAGACAAACACACAAAGGAAGAGTGAAA [CACACA_site3921],10.2
11,ATCTATATTATTTCTACACACATATCTATAATATGT [CACACA_site7561],10.2
12,TTTTTTTTTTTGTGTGCATGTGCTAGGAAAGGTAGG [TGCATGCA_site330],9.65
13,AATAATATATAAGAAAGTACAAAAAAATAAAATAAA [XGTACX_site3302],9.74
14,TTTTAATGAAATATCAAAAAAATTTATGATTTCAAA [GTGCAC_negctrl_site662],8.97
15,AAAAAGAAAAAACTTACACACATATATACACCCATG [CACACA_site8079],11.3
16,TATAAATAATTATATTGTACTCTTTATATTTTTCTT [XGTACX_site5335],9.7
17,AGAAGTTTATCTTTTAGTACGCATAAAAAAAAAAAA [XGTACX_site2359],9.39
18,TAAATATATATATGGTGTACCATTTTGGGTTAATAT [XGTACX_site2706],9.54
19,GGGAGGATATTTCACAGTACCCAGGAAATCTGCGGA [XGTACX_site2555],9.2
20,TTAATATTTTGATGTGTACACATTAAAATAGTTTTA [CACACA_site5712],9.5
21,TATATTATTTTTTATTGTACTTAAAAATATTATTTG [XGTACX_site1443],9.55
22,TTAAATAGCTGTAATTGTACAAATAAATACATAAAT [XGTACX_site3097],9.72

row,Sequence,gcPBM binding intensity (ln)
1,TATAGTAATATTTGAAGTACAAAATTAAAATAAATA [XGTACX_site7634],9.87
2,TTATATAAGGTCTATATATAAATATTAATGATAAGG [TGCATGCA_negctrl_site354],9.54
3,TTTTTTTTGTTATGAACATGCAAATTAAAATATAAT [TGCATGCA_site954],9.4
4,TACTTTTCTTAAAGATGTACGTTTTAAAAATAAAAT [XGTACX_site14],9.33
5,CAACAATTTCGTCATACACACATTCAGAATATATAT [CACACA_site2370],9.81
6,TAAATACATAAAAATTGTACACATTGTTTTCTCTTT [XGTACX_site6435],9.7
7,TCCTTATTTTGCAGGAGTACCATTTTTTAAAAATAC [XGTACX_site5968],9.46
8,ACAATTACTTATTTTAATTTTTTTAATCTATTGATT [CACACA_negctrl_site967],9.57
9,AATAACAATTATAAAAGTACAGATTTTTATTTCTAA [XGTACX_site5746],9.4
10,ATATTTTTTTTTCTTTCGCACACGTGAAAGAATTTC [CACACA_site8636],9.9
11,TTTTATGCTCAATTATTAAGAAATACTTTTTCTTCC [XGTACX_negctrl_site208],9.44
12,AAAATAAAAATTAACTGTACATACATTATTCAAATT [XGTACX_site6106],9.65
13,AAGGAAATAATTAAATGTACAAAAAAAAAAAAAATT [XGTACX_site562],9.73
14,TACAAACAAACACATAGCAATATATGTTATCAAAAA [XGTACX_negctrl_site1],9.81
15,GATATAATTATATTATGGTGTTTTTGATAGATATTT [GTGCAC_negctrl_site313],9.61
16,AGTATATACACGTGCGTGCACAGATATTCTTTTTTT [GTGCAC_site9398],9.71
17,ATCAAACCATAAAAGAGTACAAAAGGATGATATTTT [XGTACX_site8883],9.71
18,TATTTTAAAGAGAAAACATGCATTATATAGAACATT [TGCATGCA_site328],9.51
19,ATAAAATATAGATGCACACACATATAGATTTCATAC [CACACA_site7636],10.1
20,TTTTTTAATTGTGATACGTATATTATTTAATGATAA [GTGCAC_negctrl_site704],9.41
21,TGTATATTTTTTATTACACACTTTTTACTTTTTAGA [CACACA_site3069],9.73
22,TATTTATTGTGATACTTATATTATTTTATGATTAAA [CACACA_negctrl_site901],9.28
